The campaign covered roughly 230,000 compounds. About 3,600 (1.6%) were called active. Entries that show only a call come without a potency. Inconclusive results, whose numbers are uncertain, are shown with a selection of clear calls. Calls come from the whole dose curve; as a rule, active = well fitted inhibition curve with a large enough effect (not every such curve was filed as active); inconclusive = small, poorly fitted or top-dose-only effect, or another doubt; inactive = no such curve, though single readings can be large or run the other way. Potencies beside an inconclusive call are fits to weak or partial responses and may not hold up.
What follows are molecules tested against Lysine-specific demethylase 4E (Homo sapiens) (UniProt B2RXH2) (assay: qHTS Assay for Inhibitors of Human Jumonji Domain Containing 2E (JMJD2E)). Settings: JMJD2E catalytic domain, FDH-coupled NADH fluorescence (FDH is formaldehyde dehydrogenase); series mostly up to 57.1 µM.
Note: nearly all actives have a fitted effect of over 50% in size.
Potency is the fitted concentration of half-maximal effect; tags give direction and shape of the fitted curve.

Sequence of UniProt B2RXH2 (B2RXH2 whole entry, looked up, the tested form may be a part): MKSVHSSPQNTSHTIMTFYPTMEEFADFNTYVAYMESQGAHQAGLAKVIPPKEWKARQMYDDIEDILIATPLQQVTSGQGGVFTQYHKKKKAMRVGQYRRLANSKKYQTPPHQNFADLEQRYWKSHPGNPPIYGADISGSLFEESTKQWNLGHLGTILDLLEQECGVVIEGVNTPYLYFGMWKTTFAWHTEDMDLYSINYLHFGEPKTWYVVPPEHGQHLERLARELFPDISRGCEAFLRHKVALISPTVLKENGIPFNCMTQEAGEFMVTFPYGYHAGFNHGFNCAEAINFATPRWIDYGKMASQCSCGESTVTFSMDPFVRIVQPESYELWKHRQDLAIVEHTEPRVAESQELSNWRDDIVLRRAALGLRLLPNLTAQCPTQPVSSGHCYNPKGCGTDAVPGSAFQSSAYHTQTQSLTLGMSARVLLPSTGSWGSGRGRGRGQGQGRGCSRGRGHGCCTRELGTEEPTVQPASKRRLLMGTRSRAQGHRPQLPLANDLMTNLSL

| SMILES | Potency |
| --- | --- |
| COc1cccc(N2C(=O)CC(N3CCN(C(=O)c4ccco4)CC3)C2=O)c1 (stereo not given) | inactive |
| O=C(NC(=S)Nc1ccccc1)c1ccc(Br)o1 | inactive |
| CCCC[n+]1ccn(C2=C([O-])c3ccccc3C(=O)/C2=N\S(=O)(=O)c2ccccc2)c1 | inactive |
| Cc1ccccc1NC(=O)Cc1cn(C)c2ccccc12 | inactive |
| CCN(CC(=O)NC(C)C)C(=O)Cc1ccc(C)c(C)c1 | inactive |
| O=c1c2ccccc2c(=O)n(Cc2ccccc2)n1Cc1ccccc1 | inconclusive: 35.5 µM [inhibitor, single point] |
| COC(=O)c1cc2occc2n1Cc1c(F)cccc1Cl | inactive |
| CC(=O)Nc1ccc(C(=O)OCC(=O)NC2CCCCCCC2)cc1 | inconclusive: 2.51 µM [inhibitor, partial curve] |
| Cc1cc(F)ccc1NC(=O)C1CCCO1 (stereo not given) | inconclusive: 39.8 µM [inhibitor, single point] |
| COc1ccccc1-c1ccc(Nc2ccc(C(=O)N3CCOCC3)cc2)nn1 | inactive |
| O=C(CC1Nc2ccccc2NC1=O)NCCCN1CCCCCC1 (stereo not given) | inconclusive: 25.1 µM [inhibitor, single point] |
| CCCOc1ccc2c(CC)cc(=O)oc2c1C | inconclusive: 31.6 µM [inhibitor, partial curve] |
| CC1=C(C(=O)OCCOc2ccccc2)C(c2ccc(C)o2)C2=C(CC(C)(C)CC2=O)N1 (stereo not given) | inconclusive: 31.6 µM [inhibitor, single point] |
| CCN1CCN(c2cc(C)c3cc(NC(=O)Cc4ccc(OC)c(OC)c4)ccc3n2)CC1 | inconclusive: 20 µM [inhibitor, partial curve] |
| O=C(CN1C(=O)NC2(CCCC2)C1=O)N1CCN(C(=O)c2ccco2)CC1 | inactive |
| COc1cc(C2C(C#N)=C(C)NC3=C2C(=O)CC(C)(C)C3)ccc1OCCO (stereo not given) | inconclusive: 25.1 µM [inhibitor, single point] |
| Cc1cc(C)nc(Nc2ccc(N3CCOCC3)cc2)n1 | inactive |
| Cc1ccc(-c2c[nH]c(=S)n2-c2ccccc2F)cc1 | inactive |
| Cc1ccc(C(c2ccc(C)o2)c2cccc([N+](=O)[O-])c2O)o1 | inactive |
| COCCn1cnc2c1c(=O)n(CC(=O)c1ccc3c(c1)OCCO3)c(=O)n2Cc1ccccc1 | inconclusive: 12.6 µM [inhibitor, partial curve] |
| CCCCN1C=C(C(=O)OC)C(c2ccccc2Cl)C(C(=O)OC)=C1 | inconclusive: 28.2 µM [inhibitor, partial curve] |
| CCOc1cc(CNc2ccc3c(c2)CCC3)ccc1OC | inconclusive: 39.8 µM [inhibitor, single point] |
| O=C1N/C(=C/c2cccs2)C(=O)N1Cc1ccccc1F | inactive |
| Cc1ccc(/C(O)=C2/C(=O)C(=O)N(CCCn3ccnc3)C2c2ccccn2)cc1 (stereo not given) | inactive |
| COC(=O)c1ccc(-c2nc3cc(N)ccc3o2)cc1 | inactive |

| SMILES | Potency |
| --- | --- |
| Cc1ccc(CCN2C(=O)CCC2(C)C(=O)NC2CCCC2)cc1 (stereo not given) | inconclusive: 39.8 µM [inhibitor, single point] |
| COC(=O)C1=C(C)OC(N)=C(C#N)C1c1ccc(OC)c(OC)c1OC (stereo not given) | inactive |
| Cc1ccc(C(=O)OC(C(=O)Nc2ccc(Cl)cc2C(F)(F)F)c2ccccc2)cc1 (stereo not given) | inactive |
| Cn1c(C(=O)NC2CC2)cc2c(=O)n(C)c3ccccc3c21 | inconclusive: 31.6 µM [inhibitor, single point] |
| C#CCOCCOCCOCCNc1nc(N2CCN(C(=O)[C@H](CCC(=O)O)n3cc(C(N)Cc4ccc(O)cc4)nn3)CC2)nc(N2CCN(C(=O)[C@H](CCC(=O)O)n3cc(C(N)CC(C)C)nn3)CC2)n1 (stereo not given in full) | inactive |
| Cn1cnnc1SCC(=O)Nc1ccc(S(=O)(=O)N2CCCC2)cc1 | inactive |
| CN(c1ccccc1)S(=O)(=O)c1ccc(Cl)c(C(=O)Nc2ccc(-c3nc4ccccc4[nH]3)cc2)c1 | inconclusive: 39.8 µM [inhibitor, single point] |
| Cc1[nH]c2ccc(F)cc2c1CCN1C(=O)OC(C)(C)C1(C)O (stereo not given) | inconclusive: 28.2 µM [inhibitor, partial curve] |
| CCCCCc1nc2c(C#N)c(-c3ccc(Cl)cc3)ccn2n1 | inconclusive: 22.4 µM [inhibitor, partial curve] |
| Cc1ccc(C)c(NC2=CC(=O)CC(C)(C)C2)c1C#N | inactive |
| CC(=O)NCCc1c(Cc2ccccc2)[nH]c2ccccc12 | inactive |
| Cc1cc(C)cc(-n2c(C)cc(/C=N/NC(=O)CN(c3c(C)cccc3C)S(C)(=O)=O)c2C)c1 | inconclusive: 39.8 µM [inhibitor, single point] |
| C=CCn1c(C)cc(C(=O)COC(=O)/C=C/c2cccc(OC)c2)c1C | inconclusive: 28.2 µM [inhibitor, partial curve] |
| CCC1Oc2ccccc2N(CC(=O)Nc2ccc3c(c2)OCCO3)C1=O (stereo not given) | inactive |
| Cc1csc(Nc2ccccc2)n1 | inactive |
| CCSc1nnc(-c2cc3c(s2)-c2ccccc2CC3)o1 | inconclusive: 28.2 µM [inhibitor, partial curve] |
| CCN(CC)C(=O)Cn1cnc([N+](=O)[O-])n1 | inactive |
| CC(C)(C)OC(=O)c1c(N)n(CCCN2CCCC2=O)c2nc3ccccc3nc12 | inconclusive: 28.2 µM [inhibitor, partial curve] |
| CC1=C(C(=O)Nc2ccccc2)C2(CCCCC2)C(C#N)=C(SCC(N)=O)N1 | inactive |
| Cc1cc(C(=O)Nc2sc3c(c2C#N)CCCCC3)cs1 | inconclusive: 39.8 µM [inhibitor, single point] |
| COc1ccc(-c2cc(C(=O)Nc3sc4c(c3C#N)CCCC4)c3ccccc3n2)cc1OC | inconclusive: 25.1 µM [inhibitor, single point] |
| C=CCOc1c(Cl)cc(CNn2cn[nH]c2=S)cc1OC | inactive |
| CC(C)(C)NC[C@@H](O)COc1ccccc1C1CCCC1 | inactive |
| CCCCn1c2nc3ccccc3nc2c2c(=N)oc(C)nc21 | inconclusive: 7.94 µM [inhibitor, full curve] |
| CCOC(=O)c1ccccc1NC(=O)c1cn(CC)c2nc(C)ccc2c1=O | inconclusive: 3.98 µM [inhibitor, full curve] |

From PubChem BioAssay AID2147 (National Center for Advancing Translational Sciences (NCATS), 2009)
